Data published in the supplement of paper PMC10126150.
Values marked as one replicate rest on one cluster of the flow cell; about a third of the high ones do not repeat.

Test system: ATP
Experiment: switch fluorescence ratio, 500 uM ATP over buffer (Cy3 cluster intensity, sum of 5 cycles each) (fold (ratio)); higher = stronger signal-on switching upon ATP binding; sequences stand for … in TCGTCGGCAGCGTCAGATGTGTATAAGAGACAGTTTTTTTTTTTTTTTTTTTTTTTTT…TC
Conditions: aptamer strand: ATP DNA aptamer (quencher-CACCTGGGGGAGTATTGCGGAGGAAGG + anchor), 100 nM annealed; ATP concentration: 500 uM; one replicate
Method in brief: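 Switching-strand clusters labelled with Cy3 on a modified Illumina MiSeq flow-cell were annealed to 100 nM quencher-labelled ATP aptamer, imaged in selection buffer, and re-imaged after 15 min with 500 uM ATP at 22 °C. This was done over five cycles with NaOH stripping and re-annealing in between. The fluorescence ratio is summed target-cycle over summed buffer-cycle Cy3 intensity per cluster, averaged per switch-domain sequence, excluding clusters outside 100-1000 RFU.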
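Also: ATP exposure 15 min at 22 °C before imaging.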

Sequence	switch fluorescence ratio
CGATGTCCGT	1.2
ATATCTCCGT	1.11
ACTGGCACTG	1.1
GATTGATCGT	1.04
TCCGGGGAAG	0.992
TGCGGTTCCT	1.05
ACCCTTTGGG	1.01
TTAACCCGTT	0.986
ACATATCATA	1.07
CTCTATGGTT	1.04
CTTCGTTAAT	1.29
GGTGCAAGGG	1.08
AACACTGGGT	1.04
GTGGGACGC	1.05
AACTCTACAA	1.23
TGCCGGATGA	0.979
TGGCCGGTGC	0.997
CAGTGGAGAT	1.01
GGTAATTCTC	1.09
TAGACACTTA	1.14
CATATTTGGA	0.995
TACGTTTAC	1.32
TCGGTATCGG	1
GAGTATTCTG	0.942
GATCGGGTGA	1.02
ACCATTTCGG	1.02

Sequence	switch fluorescence ratio
GTAGGGGGAA	1.02
GATACTCGGA	0.981
CCAATTTCTT	1.04
TGCGGGGCGA	0.981
GTTAGGGTGA	1.06
TCCGGCCTTC	1.05
CTATATAACA	1.02
ACTTTTGTAA	1
ACCCACCACT	1.37
TGTGTAGTTA	0.971
GGAGCCAACC	1.09
GCTACGTTCT	1.01
GGAATGATAC	1.11
CTAGGATGTC	1.07
TTCCTGCCGT	1.07
GGACATTGGG	1.02
ACATAGTCCA	1.01
CTATGCCTCC	1.1
ATTTAGTCT	0.932
TCAGGCTGGT	1.01
ACACCGGATA	1.15
CGCGTAAATA	0.998
CGCTTCTCAC	1.7
TAAGGGTAC	1.01
CCAGGGAACG	1.04
TTTATCTCGT	0.979

Sequence	switch fluorescence ratio
TTAATTTAAC	0.988
TATTACACCG	1.06
GTAAATTCAT	0.978
GTGAGGGACA	0.977
GGGGTGATTA	1
AACTTAACAT	1.07
GTCCTTTTAT	1.02
TTTCCGTGT	1
AATGAGGTAA	0.994
CATGTTTAGC	0.992
CGACCTCGG	1.02
CTCGCTGACA	1.11
CTGACTTGGT	1.02
ACCGGGTAGT	0.958
CCGAATTCAG	1.03
ACAGCCCCTA	1.05
CTTGTGGATA	1.02
CGCTGCTCTG	1.02
AGGCCCATCA	0.986
TAAACCCCAG	1.23
AATGGTGT	1.06
TCGATACGTT	1
TTTGAAAAGA	0.986
TGACAGGTTA	0.945
CGTCTGTATG	0.994
ATGCCTTTTT	0.981

Sequence	switch fluorescence ratio
CTTTTAAAAG	1.08
TACAAGTTGC	1.37
CATCATAGAG	0.992
GCTTCCTACT	1.34
AGCCCAGCTA	0.954
TTTAGTG	0.954
AGACTCTTGT	0.981
CGTGAAGTAT	1
ACCATTCTAG	0.996
TGATGGTGTT	1.04
TTCTTTGTAA	1.04
ACTTACGTTG	1.29
TTGAGTCTTC	1.03
AAGAGACCCT	0.989
TAGTTGCGTA	1.03
TAGACCTCAC	1.19
CGGCATGCTT	1.05
CTGCGGCTTC	0.992
TCCTTTTAAA	1.04
GCGACCATTT	1.02
ACGACTTAAA	0.969
CGACCGGAAT	3.97
ATAGGGTATT	1.24
TTTGCTGACC	1.05
CAGCTCTTAA	1.02
AGTTTTCTCA	1.13

Sequence	switch fluorescence ratio
ACCCCGGCAT	1.19
GCATGAGAAA	1
CGCCCCGATC	1.12
ACGATCATGG	1.01
ATCGCGCGC	0.979
CAGAGGCAGA	1.42
GGCCGCTAGG	1.01
TGGTGCGCGC	0.898
ACGCGAGCCA	1.02
TCGTCTGCGA	2.68
TAATTGTG	0.944
TACTCACTTA	1.18
CTTCATAGTC	1.04
TACCACTAGA	1
ACGGTACGTA	1.03
AAACCGTCGT	1.04
GCCACGACGT	1.01
GCTAAAGGGC	0.992
AGTGTTAAAG	1.03
GTGCTCTGAA	1.01
CTACATATAT	1.07
ACTCTGTCAA	6.32
CGTACTGCCC	0.963
ACGAGGTAGC	0.986
CGCGGTTCAG	1.08
TCCACTGGGA	1.02

Sequence	switch fluorescence ratio
TACGACTAGA	1.08
ATAATCAAGC	1
GGAGAGTCTT	1
TCGTCAGAGT	0.957
ATCCCCGGAA	2.57
TCGCAGCGCG	0.998
TTATCTGCGG	1.05
TAGGCTCAAT	0.983
AGATCAAGAT	1.02
CTGACGTCGC	1.13
TGGGAAGACG	1.02
ATTCTCGAAT	0.947
GGCATAGCCT	1.03
TGCTTCTGGT	1
TATCAGAATA	1
CGCCAGCAGT	3.02
CGCTCCATAT	1.13
GTGATCGCTC	1.08
AGGATGGTT	0.965
AGGAAAGGTA	1.05
ATCGGTCACA	0.981
GATATATGGG	0.998
CGGTACCTGG	0.964
CGAGGGTGTG	1.01
GAGGCAACCG	1.09
AACTGGCACG	1.04

Sequence	switch fluorescence ratio
CCGCTGTTCT	1.63
AGGTGTATAC	1.01
GGCTTGATGG	0.985
AATTATGCTT	0.99
ATAGCGCCTG	1.07
TACAAACAGC	1.01
CTAACATTGG	1.02
AATCTAGGGA	0.968
CAGTGTAGTA	1.01
GCTTTAAGA	1.05
ATTGACTCTC	1.05
CGTTTAGCAA	5.62
GTTATTGAAC	1
ATTTCTATA	1.04
AACGAAATCA	1.02
GAGTACGTCG	0.988
AAGTGTTACC	0.997
ATGGGGGAAG	0.982
AAGAGACCTG	1.03
GAAGGCCGA	0.937
TTTTTGAGTC	0.905
GCTTCGTC	1.02
ATGGGACTGG	0.971
CGGTTACATG	0.977
TTTAGGCGTC	0.925
AAGTCTTTTA	0.952

Sequence	switch fluorescence ratio
GCATATGGGG	1.03
TGCGATTTGA	1.01
AATGGTCTCT	1
AACCATGCGT	1.03
AGTGGCGTAC	1.02
CCAGTTCACA	1.01
TAGGATTTAC	1.01
CCACGACC	1.03
GACTGCCTGA	1.02
AAATTTGAGT	0.982
AGGGCACTGG	0.981
AGATGAGGTT	0.999
ATCAGCTCAC	1.13
AATCGCATAT	1.4
AGGTTGGGA	0.971
TTAAAGATT	0.99
CAGATGGGGG	1
CTGTGATTCG	1.01
GTCCTGAGGT	1.03
